# The other results are listed elsewhere or left out.
# Tests used:
# [1] = test system: HSkMC (human skeletal muscle cells); test: cytotoxicity call (relative viability < 0.9); settings: 10 µM
# [2] = test system: HepG2; test: cytotoxicity call (relative viability < 0.9); settings: 10 µM
# [3] = test system: S. aureus RN4220; test: growth inhibition call (relative growth <= 0.2); settings: 50 µM
Structure (SMILES),cytotoxicity call [1],cytotoxicity call [2],growth inhibition call [3]
C[C@H](CO)N1C[C@H](C)[C@@H](CN(C)S(=O)(=O)c2ccccc2F)Oc2cc(C#Cc3ccccc3)ccc2S1(=O)=O,inactive,inactive,inactive
O=C(/C=C/c1ccc(O)c(O)c1)O[C@@H]1[C@H](O)C[C@@](O)(C(=O)O)C[C@H]1OC(=O)/C=C/c1ccc(O)c(O)c1,inactive,inactive,inactive
CCCN(C)C[C@@H]1OCCCC[C@H](C)Oc2ccc(NC(=O)CCC(F)(F)F)cc2C(=O)N([C@H](C)CO)C[C@@H]1C,inactive,inactive,inactive
O=C(C[C@@H]1CC[C@@H]2[C@H](COC[C@H](O)CN2C(=O)Nc2cccc(F)c2)O1)NCc1ccccc1Cl,inactive,inactive,inactive
C[C@H]1[C@H]([Si](C)(C)F)[C@@H](CC(=O)N2Cc3ccccc3C[C@H]2CO)O[C@]12C(=O)N(c1ccccc1)c1ccccc12,inactive,inactive,inactive
CN1C(=O)[C@H]2CN(C)c3ccccc3[C@H]2C1=O,inactive,inactive,inactive
COc1ccc(CN(C)C[C@@H]2Oc3c(NS(=O)(=O)c4c(C)noc4C)cccc3C(=O)N([C@H](C)CO)C[C@@H]2C)cc1,inactive,inactive,inactive
CCC(=O)c1ccc(C)s1,inactive,inactive,inactive
Cn1nc2c(c1N)CCC2,inactive,inactive,inactive
Cc1noc(C)c1NC(=O)N(C)C[C@@H]1Oc2ccc(NC(=O)CCN3CCOCC3)cc2C(=O)N([C@H](C)CO)C[C@H]1C,inactive,inactive,inactive
C[C@H](CO)N1C[C@H](C)[C@@H](CN(C)Cc2ccc(-c3ccccc3)cc2)Oc2ncc(-c3cccnc3)cc2C1=O,inactive,inactive,inactive
C[C@@H]1CN([C@H](C)CO)C(=O)c2cc(N(C)C)ccc2O[C@@H](C)CCCCO[C@@H]1CN(C)Cc1ccc(C(F)(F)F)cc1,inactive,inactive,inactive
CN1C(=O)c2cc(NC(=O)C3CCOCC3)ccc2OC[C@H]2O[C@@H](CC(=O)NCc3ccccc3F)CC[C@@H]21,inactive,inactive,inactive
C[C@H](CO)N1C[C@H](C)[C@@H](CN(C)Cc2ccccc2)OCCCC[C@H](C)Oc2ccc(NC(=O)NC3CCCCC3)cc2C1=O,inactive,inactive,inactive
CO[C@H](CN(C)S(=O)(=O)c1ccc(F)cc1)[C@H](C)CN([C@@H](C)CO)S(=O)(=O)c1cccc(Cl)c1,inactive,inactive,inactive
C=CCN(C(=O)[C@H]1N(CCOCCO)C(=O)[C@H]2[C@H](C(=O)O)[C@@H]3C=C[C@@]21O3)C(C)(C)C,inactive,inactive,inactive
CN1CCN(C(=O)C[C@H]2CC[C@H]3[C@@H](COC[C@@H](O)CN3C(=O)Nc3ccc4c(c3)OCO4)O2)CC1,inactive,inactive,inactive
C[C@H]1CN([C@@H](C)CO)C(=O)Cc2cc(NC(=O)Cn3cnnn3)ccc2O[C@@H]1CN(C)C(=O)Nc1ccc(F)cc1,inactive,inactive,inactive
C=CCC[C@@H](Cc1ccc(F)cc1)C(=O)O[C@H](CNC(=O)[C@@H](CC=C)CC(=O)N(CCO)Cc1ccccc1)c1ccccc1,active,inactive,inactive

Structure (SMILES),cytotoxicity call [1],cytotoxicity call [2],growth inhibition call [3]
COCC#Cc1cnc2c(c1)C(=O)N([C@H](C)CO)C[C@H](C)[C@H](CN(C)S(=O)(=O)c1ccccc1)O2,inactive,inactive,inactive
CC(C)NC(=O)Nc1ccc2c(c1)C(=O)N([C@H](C)CO)C[C@@H](C)[C@H](CN(C)Cc1ccc(C(=O)O)cc1)O2,inactive,inactive,inactive
C[C@H](CO)N1C[C@H](C)[C@H](CN(C)C(=O)c2cc(Cl)cc(Cl)c2)OCc2ccccc2-c2c(n(C)c3ccccc23)C1=O,inactive,inactive,inactive
COc1cccc(S(=O)(=O)N(C)C[C@H]2OCc3cnnn3CCCC(=O)N([C@@H](C)CO)C[C@H]2C)c1,inactive,inactive,inactive
C[C@@H]1CN([C@H](C)CO)S(=O)(=O)c2ccc(C#CCN(C)C)cc2O[C@H]1CN(C)C(=O)c1ccccc1F,inactive,inactive,inactive
CC(=O)c1cccc(S(=O)(=O)N2[C@@H]3CC[C@@H](C3)[C@H]2c2nc3cccc(OCc4ccc(F)cc4)c3[nH]2)c1,inactive,inactive,inactive
COc1cc(O)c2c(=O)c3cc(OC)c(OC)cc3oc2c1,inactive,inactive,inactive
C[C@@H]1CCCCO[C@@H](CN(C)S(=O)(=O)c2cccs2)[C@H](C)CN([C@@H](C)CO)C(=O)c2cc(NS(C)(=O)=O)ccc2O1,inactive,inactive,inactive
C[C@H]1CN([C@@H](C)CO)C(=O)CCCn2nncc2CO[C@H]1CN(C)C(=O)c1cc(-c2ccccc2)on1,inactive,inactive,inactive
C/C=C/c1ccc2c(c1)O[C@@H](CN(C)C(=O)c1ccc3c(c1)OCO3)[C@H](C)CN([C@H](C)CO)S2(=O)=O,inactive,inactive,inactive
Cc1noc(C)c1S(=O)(=O)Nc1ccc2c(c1)C(=O)N([C@@H](C)CO)C[C@@H](C)[C@H](CN(C)S(=O)(=O)c1cn(C)cn1)OCCCC[C@@H](C)O2,inactive,inactive,inactive
C[C@@H]1CCCCO[C@@H](CN(C)C(=O)c2ccccc2)[C@@H](C)CN([C@@H](C)CO)C(=O)c2cc(NS(=O)(=O)c3ccc(F)cc3)ccc2O1,inactive,inactive,inactive
CN1CCN(C(=O)C[C@H]2CC[C@@H]3[C@H](COc4ccc(NC(=O)c5cscn5)cc4C(=O)N3C)O2)CC1,inactive,inactive,inactive
C[C@H](CO)N1C[C@H](C)[C@H](CN(C)Cc2ccc(C(=O)Nc3ccccc3N)cc2)Oc2ccc(NS(=O)(=O)c3cn(C)cn3)cc2CC1=O,inactive,inactive,inactive
C[C@@H]1CN([C@H](C)CO)C(=O)c2cc(NC(=O)Cn3cnnn3)ccc2O[C@@H]1CN(C)S(C)(=O)=O,inactive,inactive,inactive
CC(=O)N1CCn2c(-c3cnn(C)c3)cnc2C12CCN(S(=O)(=O)C1CC1)CC2,inactive,inactive,inactive
COc1ccc(S(=O)(=O)N(C)C[C@H]2Oc3c(NS(=O)(=O)c4cccs4)cccc3C(=O)N([C@@H](C)CO)C[C@H]2C)cc1,inactive,inactive,inactive
CN(C)C(=O)C1CCN(S(C)(=O)=O)CC1,inactive,inactive,inactive
Cc1noc(C)c1NC(=O)Nc1ccc2c(c1)C(=O)N([C@H](C)CO)C[C@@H](C)[C@H](CN(C)S(=O)(=O)c1ccccc1)OCCCC[C@@H](C)O2,inactive,inactive,inactive

Structure (SMILES),cytotoxicity call [1],cytotoxicity call [2],growth inhibition call [3]
O=C1OCCN(c2ccccc2)C1=O,inactive,inactive,inactive
C[C@@H]1CN([C@@H](C)CO)C(=O)Cc2cc(NS(=O)(=O)c3cccs3)ccc2O[C@@H]1CN(C)Cc1ccc(-c2ccccc2)cc1,inactive,inactive,inactive
COc1cccc(S(=O)(=O)N(C)C[C@H]2Oc3ncc(C#CCN(C)C)cc3C(=O)N([C@H](C)CO)C[C@H]2C)c1,inactive,inactive,inactive
C[C@H]1CN([C@@H](C)CO)S(=O)(=O)c2ccc(C#Cc3ccncc3)cc2O[C@@H]1CN(C)C(=O)C1CCOCC1,inactive,active,inactive
C[C@H](CO)N1C[C@H](C)[C@@H](CN(C)C(=O)Nc2ccc3c(c2)OCO3)OCCCC[C@H](C)Oc2ccc(NC(=O)Nc3cccc4ccccc34)cc2C1=O,inactive,inactive,inactive
C[C@@H]1CN([C@@H](C)CO)C(=O)Cc2cc(NC(=O)CCC(F)(F)F)ccc2O[C@H]1CN(C)Cc1ccc(C(F)(F)F)cc1,inactive,inactive,inactive
Cc1c(Cl)cccc1Nc1ccccc1C(=O)O,inactive,inactive,inactive
Cc1ccc2c(Cl)cc(Cl)c(O)c2n1,inactive,inactive,inactive
C[C@@H]1CCCCO[C@@H](CN(C)S(=O)(=O)c2ccccc2)[C@@H](C)CN([C@H](C)CO)C(=O)c2cc(NC(=O)NC3CCCCC3)ccc2O1,inactive,inactive,inactive
C[C@@H]1CN([C@@H](C)CO)C(=O)c2cccc(NC(=O)Nc3ccc(C(F)(F)F)cc3)c2O[C@H]1CN(C)Cc1ccc(Oc2ccccc2)cc1,active,inactive,inactive
COc1ccc(S(=O)(=O)Nc2ccc3c(c2)C(=O)N([C@@H](C)CO)C[C@@H](C)[C@@H](CN(C)C(=O)Nc2cccc4ccccc24)OCCCC[C@@H](C)O3)cc1,inactive,inactive,inactive
CC(=O)Oc1cncc(C(=O)O)c1,inactive,inactive,inactive
CC(C)CNC(=O)[C@@]1(c2ccc([N+](=O)[O-])cc2)CC(=O)N(CC23CC4CC(CC(C4)C2)C3)[C@@H]1c1ccc(CO)cc1,inactive,inactive,inactive
NCC[C@@H]1CC[C@@H](NC(=O)Cc2ccncc2)[C@H](CO)O1,inactive,inactive,inactive
Cc1ccc(NC2=CC(=O)C[C@H](c3ccc(Cl)cc3)C2)cc1,inactive,inactive,inactive
C[C@@H]1CCCCO[C@@H](CN(C)S(=O)(=O)c2ccc(F)cc2)[C@H](C)CN([C@@H](C)CO)C(=O)c2cc(NC(=O)CCC(F)(F)F)ccc2O1,inactive,inactive,inactive
CCS(=O)(=O)Nc1ccc2c(c1)C(=O)N(C)[C@@H]1CC[C@H](CC(=O)NCCOC)O[C@H]1CO2,inactive,inactive,inactive
O=C(C1=C[C@H](c2ccc(Br)cc2)C[C@H](OCc2ccc(CO)cc2)O1)N1CCCCCCC1,inactive,inactive,inactive
C[C@@H]1CN([C@H](C)CO)S(=O)(=O)c2ccc(C#CC3(O)CCCC3)cc2O[C@@H]1CN(C)C(=O)c1ccncc1,inactive,inactive,inactive
